This is one part of the list.
The sequences below were run on PF3D7_0420300 AP2 domain 1 (GST-tagged) (assay: gcPBM binding intensity (ln(normalized median fluorescence intensity)); higher = stronger DNA binding).
Summary of the method: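 An Agilent 4 × 180k array of primer-extended double-stranded 36-bp intergenic genomic probes, with negative controls, was incubated for 1 h with GST-tagged P. falciparum DNA-binding domains expressed in E. coli. Alexa488 anti-GST antibody detected bound protein, scanned at 488 nm. Binding intensity is the highest Masliner-normalised natural-log median intensity across replicate spots of either probe orientation.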

Sequence | gcPBM binding intensity (ln)
TCGTAGTTACTATGGCAAGAAAATAAACGGTCTTGT [GTGCAC_negctrl_site684] | 9.31
ATTCGTAGTTTTATGAATTAATATAATAAAAATTAA [XGTACX_negctrl_site181] | 8.77
TAAAAAACAAAACAGGTGCTATATAATTTTCATTTT | 9.35
ATAGAATAATATTGTAGTACTAAAAATATTCATTTT [XGTACX_site6447] | 9.17
TCTATATATAAATATAAATATATATATATAATGTTA [TGCATGCA_negctrl_site92] | 8.99
ATTATAAATTAAAATACACACATATATACATAATAT [CACACA_site7337] | 9.66
AAGTATATACATATATGTACACATTGTCAGATAGAA [XGTACX_site1236] | 9.2
TCTTTTTGTTCGTGTACACACATGAAATTTATAAAA [CACACA_site1619] | 9.33
ATATATATATATATATGTACATATTTTTAATTATAA [XGTACX_site7444] | 9.02
ATATTTTCTTTTTAAAGTACATATTTGATTACAATA [XGTACX_site8414] | 9
GAAAAAAAAGAAAAAACACACATATGATATATTTAT [CACACA_site1524] | 9.31
CATGTAATATTAAACACACACTCATATAACACAATA [CACACA_site65] | 9.75
ATATATATTTATATATATATATATATATATATGTAT [GTGCAC_negctrl_site220] | 8.96
AAAGAAAAAAAAAACACACACACACGCATTCAATAT [CACACA_site6169] | 10.1
TAGTTATTTATATACACACACATACAGACAAATAAA [CACACA_site7577] | 9.97
TCTTAGATTATTTATTGTACTTATGCTTAAAAAATT [XGTACX_site3639] | 9.13
GTCCAATAAGGAAGAGTGCAAAAATTAAATAATATA [GTGCAC_site9751] | 9.16
TCTATAAAGTTCCATACATGCGCCATCATTTATATT [TGCATGCA_site195] | 9.6
ATTATAATTATTTTGTTGCACTATTTTTGTAGGCCA [GTGCAC_site9734] | 9.25

Sequence | gcPBM binding intensity (ln)
GAATACACCACGCACACACACTTGAGAAAAAATAAA [CACACA_site7747] | 9.74
GTGTACATAGGTATAGCACACACAAATGTAGGTATT [CACACA_site9339] | 9.63
AAATAAAATTATAACTGTACGTTGTATGAAATAATG [XGTACX_site5462] | 9.31
TGTATATATATATAAAGTACATATAATATATATTTG [XGTACX_site5411] | 9.05
CTGTTTAAAATATAAACACACATTGTTTGCTTTAGA [CACACA_site1301] | 9.23
ATTTTTTTACTGCAACCATATTTTTCCCTTTTATTC [CACACA_negctrl_site1282] | 9.57
GTATACACATATATATGTACTTAATTATTTTATGTC [XGTACX_site6707] | 9.33
CAAAGGGAAATTAACACACACATATATATATATATA [CACACA_site2453] | 9.63
GTCATAAAAACATATACACACTTGAAATATAAAAAT [CACACA_site5315] | 9.59
AAACATGATTATTATAGTACAATTATAATTATTATA [XGTACX_site2590] | 9.05
TTTATAAAAATATACACACATACAAATATGCATATA [CACACA_site712] | 9.44
GAAAAAAGGAAATAAAGAAAAAAAAAAATGAAATAT [XGTACX_negctrl_site318] | 9.45
TTTATATGTATTAAGTGTACACATATAATCTATCTT [XGTACX_site4922] | 9.35
TAATAATATATATGAAGTACAATAACTTTTTGTTTT [XGTACX_site292] | 9.18
GTCAAATTTTTGTGCACACATATATAGTTATTATTA [CACACA_site2241] | 9.67
TTTCTTTTCTCAGAAATTATTCAAATGAAAAAAAAT [TGCATGCA_negctrl_site44] | 8.69
TTACATATGGTTAGTAGTACATATATAAATGTAAAT [XGTACX_site7206] | 9.28
AAAAAAAAAAAAAAAACACACACATACACCCAAAAA [CACACA_site7910] | 9.69
AAAAAATATTAATATAGTACTTTATATTTATAAGTA [XGTACX_site6895] | 9.09

Sequence | gcPBM binding intensity (ln)
TTTTTGTTATTTTTAGTGCACATTTAAGGGTGTATT | 9.28
TATATCTTACTTTTTGCACACACTAATATTATTGTT [CACACA_site1640] | 9.8
GAAGGAAAAACAGAATGTACATAAATAAACGTATAT [XGTACX_site753] | 9.76
ACAAAATTTACAAAATGTACAAAATTTACAAAATGT [XGTACX_site6464] | 9.12
AATACGGCAAACATTAAAAAATATAATAACAATAAA [CACACA_negctrl_site868] | 9.53
ATCTGTCGACAGGACAGTACACAGTAGCCAGGAAAT [XGTACX_site1994] | 9.39
TATATATATATATATATATATATGTATGTGCATTTA [TGCATGCA_negctrl_site53] | 9.07
ATTTAGAAAAATAAAACACACATATATATGTAAATA [CACACA_site4113] | 9.57
ATATAAAAATGTAAGGGTACATAATAAATAATCAAA [XGTACX_site5217] | 9.48
ATATATTTACATATTACACACAATATTGTACACATA [CACACA_site6564] | 9.7
TTAAATATAATATTATGTACTAAATATTTTTTTATT [XGTACX_site6121] | 9.11
TTTCTTTTTAAATAGGTGCATATTTTTATAAATATA | 9.03
CTATTTCAGAAACACACACACACAAACAAACATATA [CACACA_site978] | 9.93
CAAGAAATTTACAAACGTACATATGTTCATACAAGG [XGTACX_site2372] | 9.3
TTAGAGAAACAAAATTGTACATTATAAATTTGCCTT [XGTACX_site440] | 9.01
TATTTGAAAGCCAATTGTACTTTAGTTTTTGAAACA [XGTACX_site5542] | 8.81
TTTATATATATTCTCACACACTTTTTATTTTAACAA [CACACA_site4534] | 9.53
ATAAATTTCCTCGTTTTTTTTTTTTTTTTTTTTTTT [CACACA_negctrl_site1173] | 9.15
AAAAATATTTATAACACACACATAATATTTATATAT [CACACA_site7238] | 9.83
